The list shows a part of the results. The list includes weakly bound sequences.
Target: T1, MBP-FoxP3dN (UniProt Q99JB6)
T1 sequence: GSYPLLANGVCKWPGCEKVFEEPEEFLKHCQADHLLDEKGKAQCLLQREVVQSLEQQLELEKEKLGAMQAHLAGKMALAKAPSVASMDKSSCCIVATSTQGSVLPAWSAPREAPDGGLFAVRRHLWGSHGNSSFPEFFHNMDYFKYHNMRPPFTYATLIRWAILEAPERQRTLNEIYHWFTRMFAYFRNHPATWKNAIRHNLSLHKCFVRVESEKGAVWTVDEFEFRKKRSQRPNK
Test: PD-seq (MBP pull-down with sequencing)
Conditions: 20 mM Tris-HCl pH 7.5, 100 mM NaCl, 1.5 mM MgCl2, 0.4 uM protein, 0.1 uM dsDNA library, 30 min, room temperature, amylose pull-down; high values mean tight binding; double strand, one strand shown

Sequence	binding signal (RPM ratio (pull-down/input))
GATGATTGTTCTCCCAGCTGATGAATTATAAGGCTCGAGTAAACAAATTTTCCTAATCTTTCTGTTCAAGCGCCATCTAC	0.361
GATGATTGTTCTCCCAGCTGATGAATTATCGTCGTCGAGTAAACAAATTTTCCTAATCTTTCTGTTCAAGCGCCATCTAC	0.436
GATGATTGTTCTCCCAGCTGATGAATTAAAGTTGTCGAGTAAACAAATTTTCCTAATCTTTCTGTTCAAGCGCCATCTAC	0.736
GATGATTGTTCTCCCAGCTGATGAATTGACTTGTTCGAGTAAACAAATTTTCCTAATCTTTCTGTTCAAGCGCCATCTAC	0.934
GATGATTGTTCTCCCAGCTGATGAATTGAGTGGATCGAGTAAACAAATTTTCCTAATCTTTCTGTTCAAGCGCCATCTAC	0.529
GATGATTGTTCTCCCAGCTGATGAATTAAGGTCGTCGAGTAAACAAATTTTCCTAATCTTTCTGTTCAAGCGCCATCTAC	0.43
GATGATTGTTCTCCCAGCTGATGAATTCATAACTTCGAGTAAACAAATTTTCCTAATCTTTCTGTTCAAGCGCCATCTAC	0.471
GATGATTGTTCTCCCAGCTGATGAATTAACAGTCTCGAGTAAACAAATTTTCCTAATCTTTCTGTTCAAGCGCCATCTAC	0.421
GATGATTGTTCTCCCAGCTGATGAATTCTATTGGTCGAGTAAACAAATTTTCCTAATCTTTCTGTTCAAGCGCCATCTAC	3.87
GATGATTGTTCTCCCAGCTGATGAATTACCTTGATCGAGTAAACAAATTTTCCTAATCTTTCTGTTCAAGCGCCATCTAC	0.28
GATGATTGTTCTCCCAGCTGATGAATTATAATAGTCGAGTAAACAAATTTTCCTAATCTTTCTGTTCAAGCGCCATCTAC	0.705
GATGATTGTTCTCCCAGCTGATGAATTGAACGTTTCGAGTAAACAAATTTTCCTAATCTTTCTGTTCAAGCGCCATCTAC	0.428
GATGATTGTTCTCCCAGCTGATGAATTAAGATCATCGAGTAAACAAATTTTCCTAATCTTTCTGTTCAAGCGCCATCTAC	0.368
GATGATTGTTCTCCCAGCTGATGAATTACTATTTTCGAGTAAACAAATTTTCCTAATCTTTCTGTTCAAGCGCCATCTAC	0.582
GATGATTGTTCTCCCAGCTGATGAATTCTGTTGTTCGAGTAAACAAATTTTCCTAATCTTTCTGTTCAAGCGCCATCTAC	7.51
GATGATTGTTCTCCCAGCTGATGAATTACCGCGCTCGAGTAAACAAATTTTCCTAATCTTTCTGTTCAAGCGCCATCTAC	0.468

Sequence	binding signal (RPM ratio (pull-down/input))
GATGATTGTTCTCCCAGCTGATGAATTGTCATCGTCGAGTAAACAAATTTTCCTAATCTTTCTGTTCAAGCGCCATCTAC	0.718
GATGATTGTTCTCCCAGCTGATGAATTCTGACATTCGAGTAAACAAATTTTCCTAATCTTTCTGTTCAAGCGCCATCTAC	1.56
GATGATTGTTCTCCCAGCTGATGAATTTCCGTGATCGAGTAAACAAATTTTCCTAATCTTTCTGTTCAAGCGCCATCTAC	0.36
GATGATTGTTCTCCCAGCTGATGAATTGTTTTGTTCGAGTAAACAAATTTTCCTAATCTTTCTGTTCAAGCGCCATCTAC	4.09
GATGATTGTTCTCCCAGCTGATGAATTATTGTTCTCGAGTAAACAAATTTTCCTAATCTTTCTGTTCAAGCGCCATCTAC	2.25
GATGATTGTTCTCCCAGCTGATGAATTACGCCCTTCGAGTAAACAAATTTTCCTAATCTTTCTGTTCAAGCGCCATCTAC	1.36
GATGATTGTTCTCCCAGCTGATGAATTTCAGCCCTCGAGTAAACAAATTTTCCTAATCTTTCTGTTCAAGCGCCATCTAC	0.402
GATGATTGTTCTCCCAGCTGATGAATTAGTGACTTCGAGTAAACAAATTTTCCTAATCTTTCTGTTCAAGCGCCATCTAC	0.834
GATGATTGTTCTCCCAGCTGATGAATTCATTGGGTCGAGTAAACAAATTTTCCTAATCTTTCTGTTCAAGCGCCATCTAC	1.26
GATGATTGTTCTCCCAGCTGATGAATTACGATGGTCGAGTAAACAAATTTTCCTAATCTTTCTGTTCAAGCGCCATCTAC	0.684
GATGATTGTTCTCCCAGCTGATGAATTAATCTGGTCGAGTAAACAAATTTTCCTAATCTTTCTGTTCAAGCGCCATCTAC	0.225
GATGATTGTTCTCCCAGCTGATGAATTTGAGGTGTCGAGTAAACAAATTTTCCTAATCTTTCTGTTCAAGCGCCATCTAC	1.4
GATGATTGTTCTCCCAGCTGATGAATTTTTTCCGTCGAGTAAACAAATTTTCCTAATCTTTCTGTTCAAGCGCCATCTAC	0.197
GATGATTGTTCTCCCAGCTGATGAATTCCAACATTCGAGTAAACAAATTTTCCTAATCTTTCTGTTCAAGCGCCATCTAC	0.667
GATGATTGTTCTCCCAGCTGATGAATTGGGCTCGTCGAGTAAACAAATTTTCCTAATCTTTCTGTTCAAGCGCCATCTAC	0.553
GATGATTGTTCTCCCAGCTGATGAATTATACAAATCGAGTAAACAAATTTTCCTAATCTTTCTGTTCAAGCGCCATCTAC	0.711
